# Assay results from PubChem BioAssay (EPA / NIEHS).
# For some assays here: What follows is the remainder of the data, with few or none of the hits. Results filed as inconclusive are left out. The entries are a selection whose mix differs from that of the whole data set. Calls of active or inactive are those of the source. The calls were made as follows, unless noted: active = hit-call score of the fitted dose curve at least 0.9, where 1 is the maximum; inconclusive = response in the unintended direction; inactive = score below 0.9.
# Assays:
# [1] = target: Estrogen receptor (Homo sapiens) (UniProt P03372); assay: NVS_NR_hER: NovaScreen (NVS) Nuclear Receptor Binding Assay for human Estrogen Receptor (ER) (AID 2283348)
# Summary of the method: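 Radioligand competitive displacement binding to estrogen receptor from MCF7 extract, cell-free; 18 h after dosing, scintillation read-out. Primary screen in duplicate at 25 uM; actives followed up in concentration series; loss of signal vs DMSO.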
# [2] = target: human Norepinephrine Transporter (NET), SLC6A2 (gene 6530) (UniProt P23975); assay: NVS_TR_hNET: NovaScreen (NVS) Transporter Assay for human Norepinephrine Transporter (NET) (AID 2283377);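 also: displacement of radioligand from human NET seen as loss of scintillation signal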
# Summary of the method: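 Cell-free radioligand binding using CHO-derived membrane protein expressing human NET, read by filter scintillation counting 1 h after dosing; loss of signal vs DMSO. Initial duplicate screen at 25 uM, actives retested in concentration series.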
# [3] = read-out: matrix metalloproteinase-3 (MMP3), MMP3 (gene 4314); assay: LTEA_HepaRG_MMP3: Life Technologies and Expression Analysis (LTEA) Assay for matrix metalloproteinase-3 (MMP3) using HepaRG (AID 2283519; active = hit-call score of the fitted dose curve at least 0.9, where 1 is the maximum; inactive = score below 0.9); conditions: actives raise or lower the signal; mRNA level, 48 h
# Summary of the method: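 HepaRG cells (~100,000/well) in serum-free induction medium were dosed in duplicate for 48 h with an 8-point half-log series from 100 uM, 0.5% DMSO. MMP3 mRNA was quantified by Fluidigm TaqMan qRT-PCR, normalized to three housekeeping genes.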
# [4] = target: rat Peripheral-type Benzodiazepine Receptor (PBR), Tspo (gene 24230) (UniProt P16257); assay: NVS_MP_rPBR: NovaScreen (NVS) Membrane Protein Assay for rat Peripheral-type Benzodiazepine Receptor (PBR) (AID 2283335)
# Summary of the method: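 Radioligand displacement, rat kidney membrane prep, 1 h exposure, filter-based scintillation read; DMSO baseline, loss-of-signal scored. Primary screen at 25 uM in duplicate, actives followed up in concentration series.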
# [5] = target: Androgen Receptor/SRC-1 Co-activator, AR (gene 367) (UniProt P10275); assay: OT_AR_ARSRC1_0960: Odyssey Thera (OT) 16-hour HEK293T Protein-Complementation Assay for Androgen Receptor/SRC-1 Co-activator (AID 2283353);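 also: actives raise the signal above DMSO so potency reflects increased AR and SRC-1 complex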
# Summary of the method: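 Interaction of AR with SRC-1 was followed by YFP fragment complementation in HEK293T cells after 16 h of dosing. Gain of nuclear-over-cytoplasmic 488 nm fluorescence against DMSO controls defined activity.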
# [6] = target: Bile acid receptor (Homo sapiens) (UniProt Q96RI1); assay: OT_FXR_FXRSRC1_1440: Odyssey Thera (OT) 24-hour HEK293T Protein-Complementation Assay for Farnesoid X receptor/SRC-1 Co-activator (AID 2283384)
# Summary of the method: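 Cell-based binding reporter: interaction of FXR with SRC-1 brings reporter fragments together, giving a fluorescence signal read 24 h after dosing of HEK293T cells.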
# [7] = target: Retinoic acid receptor RXR-alpha (Homo sapiens) (UniProt P19793); assay: OT_NURR1_NURR1RXRa_1440: Odyssey Thera (OT) 24-hour HEK293T Protein Complementation Assay for Nurr1/retinoid X receptor (RXR) (AID 2283386)
# Summary of the method: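 Measured as fluorescence from a reconstituted split reporter, this 24 h HEK293T complementation assay scores compound-induced gain of Nurr1/RXRα association relative to DMSO.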
# [8] = read-out: Early growth response protein 1 (EGR1) transcription factor, EGR1 (gene 1958); assay: LTEA_HepaRG_EGR1: Life Technologies and Expression Analysis (LTEA) Assay for Early growth response protein 1 (EGR1) transcription factor using HepaRG (AID 2283490; active = hit-call score of the fitted dose curve at least 0.9, where 1 is the maximum; inactive = score below 0.9); conditions: actives raise or lower the signal; mRNA level, 48 h
# Summary of the method: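 Differentiated HepaRG cells in serum-free induction medium exposed 48 hours, duplicate, to 8 half-log concentrations up to 100 uM in 0.5% DMSO. EGR1 mRNA measured by TaqMan qRT-PCR, normalized to ACTB, GAPDH, POLR2A; bidirectional fit versus DMSO.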
# [9] = test system: SERPINA7 (gene 6906); assay: CCTE_GLTED_hTBG: CCTE's human Thyroxine-binding Globulin (TBG) Inhibition Assay, Great Lakes Toxicology and Ecology Division (GLTED) Lab (AID 2284343);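 also: active chemicals lower fluorescence versus DMSO baseline by displacing probe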
# Summary of the method: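 Measures how far test chemicals displace ANSA bound to purified human TBG. The read-out is fluorescence at 380 nm excitation and 475 nm emission, taken after 2 h of incubation.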
# [10] = target: chimpanzee Androgen Receptor (AR), AR (gene 747460) (UniProt O97775); assay: NVS_NR_cAR: NovaScreen (NVS) Nuclear Receptor Binding Assay for chimpanzee Androgen Receptor (AR) (AID 2283346);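 also: radioligand displacement from AR measured by scintillation counting in a cell-free assay; a loss of bound radioligand signal versus DMSO counts as binding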
# Summary of the method: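 Radioligand binding to chimpanzee AR expressed in Sf9/Sf21 cells, cell-free, measured 72 h after dosing by lysate-based scintillation counting. Loss of signal vs DMSO; initial duplicate screen at 25 uM, actives retested in concentration series.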
# [11] = target: T1, Estrogen receptor (Homo sapiens) + Estrogen receptor beta (Homo sapiens) (UniProt P03372+Q92731); assay: OT_ER_ERaERb_1440: Odyssey Thera (OT) 24-hour HEK293T Protein-Complementation Assay for Estrogen Receptor-alpha/-beta Homodimer (AID 2283356);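 also: heteromer of ER alpha and ER beta binding domains; hits raise reporter fluorescence and both agonists and antagonists give an increase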
# Summary of the method: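 24 h exposure; HEK293T PCA cells with ERα/ERβ LBD fragments; signal rise in nuclear or whole-cell fluorescence over vehicle.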
# [12] = target: rat Adrenergic Receptor, Alpha 2 (Adra2), Non-selective Binding, Adra2a (gene 25083) (UniProt P22909); assay: NVS_GPCR_rAdra2_NonSelective: NovaScreen (NVS) G Protein-Coupled Receptor Assay for rat Adrenergic Receptor, Alpha 2 (Adra2), Non-selective Binding (AID 2283299)
# Summary of the method: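 Rat cortical membranes, radioligand competitive displacement read by filter-based scintillation counting 1.25 hours after dosing. Primary screen in duplicate at 25 uM; actives followed up in concentration series.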
# [13] = ACEA_AR_agonist_AUC_viability: ACEA Biosciences xCELLigence Real-Time Cell Analysis on Androgen Receptor Agonism for Viability (AID 2283775);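 also: viability read 80 hours after compound addition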
# Summary of the method: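 Read-out is area under the impedance curve at 80 h post-dose in 22Rv1 cells, with DMSO as baseline and signal loss taken as reduced viability. Compounds ran in duplicate from 100 uM final.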
# [14] = target: Estrogen receptor beta (Homo sapiens) (UniProt Q92731); assay: OT_ER_ERbERb_1440: Odyssey Thera (OT) 24-hour HEK293T Protein-Complementation Assay for Estrogen Receptor-beta/-beta Homodimer (AID 2283380);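 also: scored as signal increase over DMSO baseline for both agonists and antagonists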
# Summary of the method: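 HEK293T cells stably expressing ER beta LBD (aa 310-547) homodimer fragment-complementation reporter, dosed 24 h. Cells formaldehyde-fixed, Draq5-stained; gain in nuclear (agonist) or nuclear plus cytoplasmic (antagonist) fluorescence versus DMSO read by laser scanning cytometry.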
# [15] = test system: guinea pig Dopamine Transporter (DAT), gene 100714898; assay: NVS_TR_gDAT: NovaScreen (NVS) Transporter Assay for guinea pig Dopamine Transporter (DAT) (AID 2283369);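 also: active compounds lower bound radioligand signal relative to DMSO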
# Summary of the method: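 Primary pass: duplicate wells at 25 uM, threshold e.g. 30% inhibition. Follow-up: singleton concentration-response, highest 50 uM. Radioligand binding on guinea pig striatal membranes, 2 h, filtration scintillation detection.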
# [16] = target: Estrogen receptor beta (Homo sapiens) (UniProt Q92731); assay: OT_ER_ERbERb_0480: Odyssey Thera (OT) 8-hour HEK293T Protein-Complementation Assay for Estrogen Receptor-beta/-beta Homodimer (AID 2283357);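 also: active means signal gain over DMSO baseline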
# Summary of the method: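 Fluorescence intensity, nuclear for agonists and nuclear plus cytoplasmic for antagonists, was quantified by laser scanning cytometry versus vehicle after 8 h treatment. The cells were HEK293T stably carrying ER beta LBD fragment-complementation partners.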
# [17] = target: Peroxisome proliferator-activated receptor gamma (Homo sapiens) (UniProt P37231); assay: OT_PPARg_PPARgSRC1_0480: Odyssey Thera (OT) 8-hour Protein-Complementation Assay for Peroxisome Proliferator-activated Receptor Gamma / SRC-1 Co-activator (AID 2283387);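 also: nuclear to cytoplasmic split Venus YFP fluorescence ratio reporting PPARg SRC-1 interaction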
# Summary of the method: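 Split-YFP (IFP1/IFP2) PPARg/SRC-1 reporter, HEK293T, 37 °C, 5% CO2; 8 h compound; formaldehyde fix + Draq5; high-content imaging, N/C ratio, ≥350 cells/image, positive direction vs DMSO.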
# [18] = ACEA_AR_antagonist_AUC_viability: ACEA Biosciences xCELLigence Real-Time Cell Analysis on Androgen Receptor Antagonism for Viability (AID 2283776);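 also: 22Rv1 human prostate cancer cells growing on impedance electrode plates; area under impedance growth curve at 80 h after dosing as viability; hits lower the growth signal relative to DMSO meaning cytotoxicity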
# Summary of the method: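 Viability endpoint from label-free cell-index monitoring: 22Rv1 cultures treated with an eight-point 1:4 dilution series starting at 100 uM final, AUC at 80 h fitted against DMSO.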
# [19] = read-out: solute carrier (SLC22A1), SLC22A1 (gene 6580); assay: LTEA_HepaRG_SLC22A1: Life Technologies and Expression Analysis (LTEA) Assay for solute carrier (SLC22A1) using HepaRG (AID 2283524; active = hit-call score of the fitted dose curve at least 0.9, where 1 is the maximum; inactive = score below 0.9); conditions: actives raise or lower the signal; mRNA level, 48 h
# Summary of the method: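 Differentiated human HepaRG cells in serum-free induction medium, exposed 48 h in duplicate to 8-point half-log series from 100 µM top in 0.5% DMSO. SLC22A1 mRNA by TaqMan qRT-PCR normalized to ACTB, GAPDH, POLR2A; bidirectional fit versus DMSO.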
# [20] = target: Androgen Receptor/SRC-1 Co-activator, AR (gene 367) (UniProt P10275); assay: OT_AR_ARSRC1_0480: Odyssey Thera (OT) 8-hour HEK293T Protein-Complementation Assay for Androgen Receptor/SRC-1 Co-activator (AID 2283354);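 also: hits raise the complementation signal above DMSO so AC50 marks enhancers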
# Summary of the method: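 HEK293T cells stably expressing AR and SRC-1 fused to Venus YFP fragments, imaged 8 h after dosing. Complementation fluorescence scored as nuclear/cytoplasmic ratio at 488 nm in at least 400 cells per image; gain fitted versus DMSO.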
# [21] = target: T1, Estrogen receptor (Homo sapiens) + Estrogen receptor beta (Homo sapiens); assay: OT_ER_ERaERb_0480: Odyssey Thera (OT) 8-hour HEK293T Protein-Complementation Assay for Estrogen Receptor-alpha/-beta Heterodimer (AID 2283352)
# Summary of the method: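 Human HEK293T cells were treated for 8 hours and receptor heterodimerisation was detected through reconstitution of a fluorescent reporter split between ER-alpha and ER-beta ligand-binding domains. Activity was analysed as gain of signal against DMSO.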
# [22] = target: rat Glutamate, NMDA Agonist Site (GluNMDA), Grin1 (gene 24408) (UniProt P35439); assay: NVS_LGIC_rGluNMDA_Agonist: NovaScreen (NVS) Ligand-Gated Ion Channel Assay for rat Glutamate, NMDA Agonist Site (GluNMDA) (AID 2283327)
# Summary of the method: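 Rat forebrain membranes, radioligand binding in the agonist-site protocol; 1 h after dosing; filter-based scintillation counting. Single-concentration duplicate screen at 25 uM, then concentration-response up to 50 uM for actives; gain-of-signal vs DMSO.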
# [23] = read-out: BCL2L11 (gene 10018); assay: LTEA_HepaRG_BCL2L11: Life Technologies and Expression Analysis (LTEA) Assay for Bcl-2 (BCL2L11) gene using HepaRG (AID 2283473; active = hit-call score of the fitted dose curve at least 0.9, where 1 is the maximum; inactive = score below 0.9); conditions: actives raise or lower the signal; mRNA level, 48 h
# Summary of the method: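 Human hepatic HepaRG cultures are treated 48 h with test chemicals (maximum 100 uM, 0.5% DMSO vehicle). Expression of BCL2L11 is measured by qRT-PCR against ACTB, GAPDH and POLR2A, with activity in either direction scored relative to vehicle.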
# Chain of UniProt Q92731 (Q92731 whole entry, looked up, the tested form may be a part): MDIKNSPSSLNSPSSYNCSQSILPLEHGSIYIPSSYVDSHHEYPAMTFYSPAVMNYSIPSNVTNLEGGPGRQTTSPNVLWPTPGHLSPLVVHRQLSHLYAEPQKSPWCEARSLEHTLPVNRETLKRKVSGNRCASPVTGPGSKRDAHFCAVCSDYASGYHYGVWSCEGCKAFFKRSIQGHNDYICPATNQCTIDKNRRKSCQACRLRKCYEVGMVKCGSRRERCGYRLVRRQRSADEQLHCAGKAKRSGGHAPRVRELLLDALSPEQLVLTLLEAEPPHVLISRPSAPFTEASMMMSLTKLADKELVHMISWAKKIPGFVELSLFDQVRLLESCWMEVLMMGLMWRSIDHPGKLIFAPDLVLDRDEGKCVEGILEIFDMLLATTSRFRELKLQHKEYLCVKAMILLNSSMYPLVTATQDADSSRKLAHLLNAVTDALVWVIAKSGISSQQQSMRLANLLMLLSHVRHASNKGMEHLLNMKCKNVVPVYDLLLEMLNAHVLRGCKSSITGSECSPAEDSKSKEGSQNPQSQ
# Chain of UniProt P10275 (P10275 whole entry, looked up, the tested form may be a part): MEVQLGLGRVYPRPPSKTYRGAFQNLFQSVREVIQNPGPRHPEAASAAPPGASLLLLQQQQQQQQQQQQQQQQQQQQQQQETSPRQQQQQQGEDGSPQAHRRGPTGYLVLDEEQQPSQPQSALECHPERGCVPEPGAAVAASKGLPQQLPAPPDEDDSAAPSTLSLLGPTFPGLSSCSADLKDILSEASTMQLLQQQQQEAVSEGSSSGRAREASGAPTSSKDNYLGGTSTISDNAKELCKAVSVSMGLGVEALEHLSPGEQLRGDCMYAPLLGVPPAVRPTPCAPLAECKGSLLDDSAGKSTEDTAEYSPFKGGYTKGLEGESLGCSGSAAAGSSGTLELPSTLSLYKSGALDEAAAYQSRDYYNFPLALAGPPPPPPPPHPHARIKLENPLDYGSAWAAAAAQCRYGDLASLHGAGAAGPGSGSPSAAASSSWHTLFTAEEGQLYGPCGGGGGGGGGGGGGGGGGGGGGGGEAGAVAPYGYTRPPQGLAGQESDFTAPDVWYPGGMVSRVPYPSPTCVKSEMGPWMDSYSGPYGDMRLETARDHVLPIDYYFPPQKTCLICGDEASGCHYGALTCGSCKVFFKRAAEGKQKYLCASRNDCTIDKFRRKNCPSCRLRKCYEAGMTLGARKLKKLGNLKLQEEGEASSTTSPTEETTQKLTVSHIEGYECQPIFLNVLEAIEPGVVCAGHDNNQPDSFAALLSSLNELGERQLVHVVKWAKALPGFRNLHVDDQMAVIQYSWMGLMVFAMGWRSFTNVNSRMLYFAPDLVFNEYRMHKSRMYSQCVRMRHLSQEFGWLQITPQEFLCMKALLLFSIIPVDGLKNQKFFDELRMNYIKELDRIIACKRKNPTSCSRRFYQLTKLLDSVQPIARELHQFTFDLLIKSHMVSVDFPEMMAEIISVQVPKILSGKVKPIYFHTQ
# Chain of UniProt P16257 (P16257 whole entry, looked up): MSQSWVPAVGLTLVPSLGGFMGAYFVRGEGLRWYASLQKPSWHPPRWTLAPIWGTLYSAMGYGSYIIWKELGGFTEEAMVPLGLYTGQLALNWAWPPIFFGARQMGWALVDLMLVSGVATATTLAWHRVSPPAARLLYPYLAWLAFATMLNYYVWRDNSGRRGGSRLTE
# Chain of UniProt P37231 (P37231 whole entry, looked up): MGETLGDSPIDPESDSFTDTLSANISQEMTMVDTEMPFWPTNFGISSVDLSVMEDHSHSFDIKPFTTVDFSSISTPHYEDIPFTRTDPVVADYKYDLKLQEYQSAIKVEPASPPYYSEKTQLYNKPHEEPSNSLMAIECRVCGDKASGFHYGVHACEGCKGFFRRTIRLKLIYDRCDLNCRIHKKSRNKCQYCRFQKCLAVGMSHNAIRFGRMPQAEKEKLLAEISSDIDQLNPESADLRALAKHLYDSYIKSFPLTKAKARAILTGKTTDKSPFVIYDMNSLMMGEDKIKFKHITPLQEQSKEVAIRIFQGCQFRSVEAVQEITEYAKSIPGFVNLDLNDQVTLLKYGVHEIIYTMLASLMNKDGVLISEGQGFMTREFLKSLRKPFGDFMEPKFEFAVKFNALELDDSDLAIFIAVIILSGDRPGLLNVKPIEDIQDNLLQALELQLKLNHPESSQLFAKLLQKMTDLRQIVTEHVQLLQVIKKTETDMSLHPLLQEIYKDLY
# Chain of UniProt Q96RI1 (Q96RI1 whole entry, looked up, the tested form may be a part): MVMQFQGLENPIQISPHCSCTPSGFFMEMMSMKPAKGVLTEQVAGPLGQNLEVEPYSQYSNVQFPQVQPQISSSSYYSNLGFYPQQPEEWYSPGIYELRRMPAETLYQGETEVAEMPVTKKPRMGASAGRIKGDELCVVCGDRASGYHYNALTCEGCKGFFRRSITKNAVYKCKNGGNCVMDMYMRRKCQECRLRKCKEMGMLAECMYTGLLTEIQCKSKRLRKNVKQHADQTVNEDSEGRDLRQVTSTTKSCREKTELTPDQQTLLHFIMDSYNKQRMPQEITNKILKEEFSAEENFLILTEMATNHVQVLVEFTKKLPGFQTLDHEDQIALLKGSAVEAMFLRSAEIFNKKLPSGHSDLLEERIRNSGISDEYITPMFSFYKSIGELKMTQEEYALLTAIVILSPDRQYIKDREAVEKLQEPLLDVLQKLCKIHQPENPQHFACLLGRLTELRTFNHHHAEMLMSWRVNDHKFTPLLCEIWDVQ
# Chain of UniProt P23975 (P23975 whole entry, looked up): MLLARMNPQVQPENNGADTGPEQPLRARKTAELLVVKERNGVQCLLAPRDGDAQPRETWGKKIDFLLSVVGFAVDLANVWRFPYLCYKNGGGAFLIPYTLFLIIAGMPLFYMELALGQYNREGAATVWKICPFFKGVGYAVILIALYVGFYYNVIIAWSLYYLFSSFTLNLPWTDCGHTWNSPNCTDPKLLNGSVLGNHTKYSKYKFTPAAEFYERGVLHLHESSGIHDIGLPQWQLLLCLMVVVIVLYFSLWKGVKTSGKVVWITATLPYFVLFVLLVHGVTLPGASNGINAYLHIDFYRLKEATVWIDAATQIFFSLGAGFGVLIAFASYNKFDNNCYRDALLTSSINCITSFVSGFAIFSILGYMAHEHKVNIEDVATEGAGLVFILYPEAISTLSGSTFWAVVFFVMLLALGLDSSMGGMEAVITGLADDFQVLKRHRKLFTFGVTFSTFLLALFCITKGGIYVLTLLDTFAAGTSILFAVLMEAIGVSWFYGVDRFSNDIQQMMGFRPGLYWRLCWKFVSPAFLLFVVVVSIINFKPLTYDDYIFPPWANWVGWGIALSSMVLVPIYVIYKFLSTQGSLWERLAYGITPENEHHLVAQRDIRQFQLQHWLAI
# Chain of UniProt O97775 (O97775 whole entry, looked up): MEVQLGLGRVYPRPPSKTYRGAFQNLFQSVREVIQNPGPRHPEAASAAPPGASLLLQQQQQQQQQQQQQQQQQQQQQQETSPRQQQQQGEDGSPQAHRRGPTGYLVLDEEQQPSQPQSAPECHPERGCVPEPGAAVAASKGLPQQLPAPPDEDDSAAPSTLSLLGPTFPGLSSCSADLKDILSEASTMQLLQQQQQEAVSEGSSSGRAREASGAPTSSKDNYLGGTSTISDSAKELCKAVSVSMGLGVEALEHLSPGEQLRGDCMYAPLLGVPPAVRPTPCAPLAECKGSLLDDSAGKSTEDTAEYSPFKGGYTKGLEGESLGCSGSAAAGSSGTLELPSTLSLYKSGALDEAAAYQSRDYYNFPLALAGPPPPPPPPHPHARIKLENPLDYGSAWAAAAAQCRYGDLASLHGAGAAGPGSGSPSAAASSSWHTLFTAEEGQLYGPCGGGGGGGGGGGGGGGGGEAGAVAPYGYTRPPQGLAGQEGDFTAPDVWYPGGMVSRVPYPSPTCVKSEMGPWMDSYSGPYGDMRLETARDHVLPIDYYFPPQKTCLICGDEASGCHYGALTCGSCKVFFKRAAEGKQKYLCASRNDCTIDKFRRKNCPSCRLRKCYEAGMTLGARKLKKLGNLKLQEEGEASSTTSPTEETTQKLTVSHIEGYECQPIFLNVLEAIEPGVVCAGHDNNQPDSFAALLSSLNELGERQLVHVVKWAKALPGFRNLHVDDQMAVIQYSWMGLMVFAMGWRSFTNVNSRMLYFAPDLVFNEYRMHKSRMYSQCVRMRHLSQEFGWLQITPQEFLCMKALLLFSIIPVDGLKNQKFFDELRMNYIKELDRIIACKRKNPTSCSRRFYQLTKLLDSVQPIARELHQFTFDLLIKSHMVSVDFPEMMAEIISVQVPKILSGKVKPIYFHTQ
# Chain of UniProt P19793 (P19793 whole entry, looked up): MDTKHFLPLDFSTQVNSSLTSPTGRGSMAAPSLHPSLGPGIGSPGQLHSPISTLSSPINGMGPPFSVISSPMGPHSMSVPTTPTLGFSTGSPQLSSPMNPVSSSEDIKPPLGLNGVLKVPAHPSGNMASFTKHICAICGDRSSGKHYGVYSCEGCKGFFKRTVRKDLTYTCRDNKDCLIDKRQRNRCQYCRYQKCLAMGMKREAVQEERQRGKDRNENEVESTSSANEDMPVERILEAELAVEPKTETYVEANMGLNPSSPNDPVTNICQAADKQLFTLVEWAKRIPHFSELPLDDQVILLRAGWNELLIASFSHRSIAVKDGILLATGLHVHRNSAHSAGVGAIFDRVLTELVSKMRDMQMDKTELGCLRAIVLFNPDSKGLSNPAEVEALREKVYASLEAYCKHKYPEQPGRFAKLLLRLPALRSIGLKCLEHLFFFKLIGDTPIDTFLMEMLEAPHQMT
smiles,measurement,setting,value
O=C1CCCCCN1SSN1CCCCCC1=O,AC50,[1],active: 25 µM
CCc1c(C(=O)NN2CCCCC2)nn(-c2ccc(Cl)cc2Cl)c1-c1ccc(Br)cc1,AC50,[2],active: 19.5 µM
same,AC50,[3],active: 91.5 µM
CCCCOC(=O)c1ccc(O)cc1,AC50,[4],active: 4.29 µM
same,outcome,[5],inactive
same,AC50,[6],active: 18.3 µM
same,outcome,[7],inactive
same,outcome,[8],inactive
same,AC50,[9],active: 41.7 µM
CCCCCCCC[N+](C)(CCCCCCCC)CCCCCCCC,AC50,[4],active: 33.3 µM
same,AC50,[10],active: 11.2 µM
O=C(O)c1ccccc1C(c1ccc(O)cc1)c1ccc(O)cc1,outcome,[11],inactive
CCOC(=O)c1ccc(C2CCC(NC[C@H](O)COc3ccc(O)c(NS(C)(=O)=O)c3)CC2)cc1 (some centres undefined),AC50,[12],active: 23.4 µM
same,AC50,[13],active: 24.2 µM
NCC1(Cc2noc(=O)[nH]2)CCCCC1,outcome,[14],inactive
CCN(Cc1cccnc1)C(=O)c1cccc(Cl)c1[C@]1(C)C(=O)N(Cc2ccc(OC)cc2OC)c2ccc(Cl)cc21,AC50,[15],active: 14.4 µM
c1ccc(Cc2ccccc2)cc1,outcome,[16],inactive
same,outcome,[17],inactive
CCCCCCCCN(C)CCCCCCCC,outcome,[5],inactive
NCCN1CCNCC1,outcome,[16],inactive
same,outcome,[17],inactive
same,outcome,[18],inactive
CCCCC(CC)COC(=O)CCCCCCCC(=O)OCC(CC)CCCC (centres undefined),outcome,[14],inactive
same,outcome,[19],inactive
CCCCC(CC)COC(=O)/C=C\C(=O)OCC(CC)CCCC (centres undefined),AC50,[20],active: 76.9 µM
NC(=O)c1cccnc1,outcome,[21],inactive
COC(=O)c1ccccc1O,outcome,[22],inactive
same,outcome,[23],inactive
O=S1(=O)CC(Cl)(Cl)C(Cl)(Cl)C1,AC50,[15],active: 14.4 µM
